Target: hTRPA1-S873V/T874L (Homo sapiens, UniProt O75762, S873V/T874L)
Test: cell-based

Row | IC50 [µM] | SMILES | EC50 [µM]
1 | 8.51 ± 1.36 | CC(C)c1ccc(NC(=O)Cn2cnc3c2c(=O)n(C)c(=O)n3C)cc1 [HC030031, 2-(1,3-dimethyl-2,6-dioxo-1,2,3,6-tetrahydro-7H-purin-7-yl)-N-(4-isopropylphenyl)acetamide] | –
2 | – | CC(C)[C@@H]1CC[C@@H](C)C[C@H]1O [Menthol, (-)-Menthol] | 161 ± 31.5
